Over roughly 33,000 sequences, “E-score (-0.5 to 0.5)” has its median near -0.054; the highest 2% begin near 0.35. The list shows a part of the results.
These sequences were tested against T1, Stb5 (UniProt P38699) (assay: PBM E-score (8-mer binding enrichment) (E-score (-0.5 to 0.5)); higher = stronger / more preferred TF binding; most listed sequences are background and not binding sites). Settings: protein concentration: 200 nM; construct: GST-full length.
T1 sequence: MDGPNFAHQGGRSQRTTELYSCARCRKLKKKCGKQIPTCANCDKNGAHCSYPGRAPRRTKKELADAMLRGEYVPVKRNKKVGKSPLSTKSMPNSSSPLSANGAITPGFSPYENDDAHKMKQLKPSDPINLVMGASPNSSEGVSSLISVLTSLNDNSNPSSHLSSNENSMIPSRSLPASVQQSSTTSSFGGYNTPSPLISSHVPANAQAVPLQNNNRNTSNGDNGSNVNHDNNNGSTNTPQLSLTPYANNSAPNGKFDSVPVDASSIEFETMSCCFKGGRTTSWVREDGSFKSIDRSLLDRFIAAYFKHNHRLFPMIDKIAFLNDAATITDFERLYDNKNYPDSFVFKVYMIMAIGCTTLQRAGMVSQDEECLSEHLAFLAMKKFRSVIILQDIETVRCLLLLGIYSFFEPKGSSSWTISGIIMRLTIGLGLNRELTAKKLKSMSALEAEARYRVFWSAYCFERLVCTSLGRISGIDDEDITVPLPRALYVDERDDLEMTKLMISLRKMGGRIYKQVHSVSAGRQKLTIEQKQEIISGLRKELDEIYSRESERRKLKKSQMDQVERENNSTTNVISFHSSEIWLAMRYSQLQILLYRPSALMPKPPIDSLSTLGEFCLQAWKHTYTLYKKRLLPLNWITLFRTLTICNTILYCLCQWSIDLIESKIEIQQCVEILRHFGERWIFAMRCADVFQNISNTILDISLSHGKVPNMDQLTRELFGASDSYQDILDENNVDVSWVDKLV
Method in brief: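 Yeast transcription factors carrying a GST tag, as full-length proteins or DNA-binding domains, were produced by PURExpress in vitro transcription/translation. About 100-200 nM protein was applied to universal all-10-mer Agilent arrays, double-stranded by primer extension on fresh or once-stripped slides. Bound protein was detected with fluorescent anti-GST, and scans were normalised with masliner. The Universal PBM Analysis Suite gave each ungapped eight-base word, pooled with its reverse complement, an E-score, a modified Wilcoxon-Mann-Whitney statistic.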

Row | Sequence | PBM E-score
1 | CGACCACG | -0.0915
2 | CGTGGCCA | -0.163
3 | CCATTTTA | 0.0641
4 | GGAAGGCA | -0.12
5 | AATGCGCC | 0.156
6 | ATTTCTCC | 0.269
7 | AACTTTCT | 0.0701
8 | ATAGTAGC | 0.0553
9 | CGGATCGC | -0.0101
10 | GGACGGCA | 0.252
11 | GTGTGACA | -0.158
12 | GACCGCCC | 0.322
13 | ACCGTTTC | 0.164
14 | CTACCGTA | 0.0526
15 | AAGTCTGT | -0.305
16 | CGGGTTGC | 0.0193
17 | CCGACAGC | 0.341
18 | AAATAAAC | 0.0274
19 | ATACGAAG | -0.0649
20 | CTACTAGA | -0.131
21 | CCCTTTAG | -0.33
22 | CTAACCAG | -0.27
23 | CAAATATG | -0.0473
24 | AAGACGAA | -0.242
25 | ATCTCTCC | 0.216

Row | Sequence | PBM E-score
26 | TAATGCAA | -0.158
27 | AAACAGGA | -0.253
28 | GCCAACGC | -0.031
29 | GATCAATC | -0.101
30 | CCGTAGGA | 0.188
31 | CAGCGCTG | 0.178
32 | ATACAAAT | -0.0114
33 | TAATAGCA | -0.0524
34 | CGATGAAG | 0.0432
35 | ACCGATCT | 0.249
36 | ATCTTCCG | 0.124
37 | AAGCATCG | 0.0161
38 | AGACGAAT | -0.201
39 | ACTGTTGG | -0.189
40 | GCCCCCGA | 0.23
41 | ATTTCTTA | -0.00559
42 | CCTTAACA | -0.13
43 | AGGGGATA | 0.0586
44 | CCGCAATC | 0.23
45 | AGAGTCTC | -0.219
46 | ATTTAGTG | -0.0234
47 | AGGTGTAT | -0.117
48 | ATGATATA | -0.00522
49 | CTACTCCC | -0.0111
50 | CGTAAACG | 0.0153

Row | Sequence | PBM E-score
51 | CTTGGGAC | -0.0832
52 | ATAGCACA | -0.124
53 | ACGGTTAC | 0.119
54 | AAACATCT | -0.121
55 | GGTATCCA | 0.097
56 | AGTAATCG | -0.031
57 | GTTGGTCA | -0.0313
58 | AACTAGCA | -0.134
59 | ACATCCTG | -0.0724
60 | AGATCTGC | -0.186
61 | AGACTGCT | -0.376
62 | GCGTTCCC | 0.0867
63 | GTCCTACA | 0.0371
64 | AGCATAAG | -0.131
65 | ACTTGATC | -0.103
66 | GGACGTTA | 0.155
67 | AATCTGTA | -0.0262
68 | ATCACATC | -0.0156
69 | AGACGTGC | -0.182
70 | GCGTAAGA | 0.101
71 | AGCCTGTA | -0.168
72 | AACGGAGG | 0.191
73 | GACTACCC | -0.143
74 | AATAGGCG | 0.0769
75 | AAAATCCA | -0.203

Row | Sequence | PBM E-score
76 | AACTCTGT | 0.0227
77 | CGCCTACC | 0.0885
78 | ACCATCAC | -0.0661
79 | GCGAACTA | -0.0254
80 | AGCATTGC | -0.156
81 | CGACCGGC | 0.222
82 | CGGCAAAG | 0.103
83 | GGGTACAA | 0.129
84 | ACGTTTCA | -0.119
85 | CCCCTGGC | -0.0152
86 | CGAGATGA | 0.0238
87 | CAGTGAAG | -0.0993
88 | AACCTGGC | -0.247
89 | ATCTTGGG | -0.145
90 | GACTAATC | 0.153
91 | GTCCCAAC | -0.0408
92 | GTAGAGTA | -0.208
93 | GGTCACAA | 0.0628
94 | ACTAATTC | -0.0183
95 | CAAGGTGC | 0.0204
96 | GATGCATC | -0.0763
97 | AGCATTCA | -0.216
98 | AAAGGCCC | 0.274
99 | ATCCATAA | 0.0068
100 | AGTGATTC | -0.00858

Row | Sequence | PBM E-score
101 | ACGGTAAT | 0.342
102 | ACATCAGA | -0.143
103 | CCGTCAAG | 0.215
104 | CAACGGGG | 0.297
105 | ATCACCAT | 0.00627
106 | AACAATAA | 0.0661
107 | CATTTAAC | 0.167
108 | CTCGCCAC | -0.0248
109 | CCCAAGGA | -0.0196
110 | ATTCACCG | 0.346
111 | GTATCGAC | -0.0532
112 | AACCATGT | -0.0973
113 | GCAACACA | -0.114
114 | ACCGAATG | 0.165
115 | AGTCTAAC | -0.0953
116 | AAACGCCG | 0.449
117 | GAGAGGGC | -0.0955
118 | ACCTCTGA | -0.0237
119 | AGGCTCTC | -0.369
120 | CCCTAGTC | -0.303
121 | GAAGGCTC | -0.13
122 | CTGACGCA | -0.0314
123 | CCACCGTA | 0.0843
124 | CTAAGAAC | 0.00444
125 | TCTTCGAA | -0.237

Row | Sequence | PBM E-score
126 | CACATGAA | -0.263
127 | ATAAGAAC | 0.0159
128 | CAGCACGG | 0.0117
129 | ACGAGTAG | 0.00828
130 | AACTTATA | 0.0508
131 | ATCAGCGG | 0.293
132 | AATTTGCC | 0.098
133 | CTTCGACC | -0.053
134 | ATACCAAT | -0.00644
135 | GATTAGCC | 0.0483
136 | CAATGCCG | 0.334
137 | AAATACGG | 0.0747
138 | TATTCTCA | -0.192
139 | TACGTCAA | -0.188
140 | CCTGAGCG | -0.0867
141 | AACTAATG | -0.132
142 | ATTCCTTA | -0.157
143 | ACCATTAA | 0.0254
144 | AACCCAGA | -0.177
145 | GCAGTGAA | -0.0884
146 | AACGGTGT | 0.425
147 | CACACATA | -0.187
148 | CAGTACTC | -0.23
149 | CTGTGCAA | -0.269
150 | CCGTGACC | 0.13

Row | Sequence | PBM E-score
151 | CATAGTAC | 0.161
152 | GGTTCCGA | 0.126
153 | GAACCCTC | -0.0966
154 | CGAACTAG | 0.023
155 | CGTCTATC | 0.119
156 | CAGTTTCA | -0.266
157 | CTTGTAGA | -0.179
158 | GTACCCAC | 0.11
159 | GTAACATA | 0.131
160 | CCACTATC | -0.0181
161 | GTTTGCTA | -0.0139
162 | AGGCACGC | -0.126
163 | TTAACGAA | 0.0168
164 | GAACTTAA | 0.0786
165 | ATCATTGA | -0.167
166 | CTTCCGCC | 0.256
167 | ATGAGAGC | -0.118
168 | GTATGACA | 0.00517
169 | CTCAGATA | -0.115
170 | AACTTCGA | -0.0324
171 | AAGTATGT | -0.268
172 | CTTATTGC | 0.0342
173 | CAGGCGCA | -0.259
174 | AATAACAT | 0.071
175 | AGAACGTG | -0.164

Row | Sequence | PBM E-score
176 | CAACCTTG | -0.0186
177 | CGGTGGGC | 0.19
178 | AGCAGTGC | -0.207
179 | TAGGCGGA | 0.209
180 | TTGCGCAA | -0.266
181 | TAGGGTCA | -0.179
182 | ACATCGAC | -0.0504
183 | AATTTACT | -0.0476
184 | AGACCGCC | 0.364
185 | ATCACCAA | -0.0569
186 | CCCGGACG | 0.196
187 | ATCCCACC | 0.225
188 | CGCATTTA | 0.265
189 | CCCAGAGG | -0.0976
190 | ATCCGAAG | 0.0691
191 | AGGCGCAA | -0.0175
192 | TTCCGCAA | 0.155
193 | ATATCCCG | 0.275
194 | CCTCGTGC | 0.0262
195 | CAAGCGAC | -0.0397
196 | GCTTAGCA | 0.0208
197 | ACTCATAG | -0.0888
198 | CCTCGGAA | -0.0398
199 | GCACTAGA | -0.0524
200 | ATACGTTA | -0.217

Row | Sequence | PBM E-score
201 | AACGATAG | -0.0898
202 | ATCAGAGC | -0.0152
203 | CTAGCCCC | 0.256
204 | ACCCTCTA | -0.276
205 | ATCCGGAA | 0.139
206 | AACGACAC | -0.0467
207 | ATAGTCCC | 0.314
208 | AACTGCGT | -0.00018
209 | ACATGGAT | -0.173
210 | AAAATTAT | 0.114
211 | CATCTTTA | 0.0279
212 | ATCTTCAT | -0.0151
213 | CTTGTTTC | -0.262
214 | GATGAACA | -0.0449
215 | CTCCTCAC | -0.203
216 | GTAGTCCA | -0.0248
217 | GCGCGGCA | 0.237
218 | TACCGTAA | 0.233
219 | AAAGGGTC | -0.0495

From the supplement of paper PMC3334620
